Here are results for 80 sequences from the supplement of paper PMC10681739.

The full ranking holds about 2,700 sequences; the median of “arbitrary fluorescence units” is about 4,100, and the highest 2% start at about 54,000. This is one part of the list.

For this assay, the target named is T1, ETS1 (UniProt P14921).
T1 sequence: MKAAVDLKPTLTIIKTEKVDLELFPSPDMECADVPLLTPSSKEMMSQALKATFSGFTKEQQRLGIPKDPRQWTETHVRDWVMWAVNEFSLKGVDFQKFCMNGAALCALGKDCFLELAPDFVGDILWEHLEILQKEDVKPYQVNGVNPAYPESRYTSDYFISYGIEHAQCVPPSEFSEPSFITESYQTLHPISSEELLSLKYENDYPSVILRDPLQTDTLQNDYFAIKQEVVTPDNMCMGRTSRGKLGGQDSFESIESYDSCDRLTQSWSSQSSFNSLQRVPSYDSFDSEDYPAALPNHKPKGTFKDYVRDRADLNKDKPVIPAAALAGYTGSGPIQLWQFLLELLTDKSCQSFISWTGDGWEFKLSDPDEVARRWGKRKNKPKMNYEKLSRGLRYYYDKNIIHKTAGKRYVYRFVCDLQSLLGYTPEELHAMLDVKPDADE
Nature of the assay: ETS1 binding intensity (PBM fluorescence) (arbitrary fluorescence units); higher = stronger binding. Particulars: ETS1 concentration 10 nM. As for the experimental part: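 gcPBM on wild-type 36-bp genomic probes with two neighbouring ETS1 sites (4-24 bp apart). Recombinant human ETS1 (10 nM) was detected with anti-ETS1 antibody fluorescence. Values are medians over 3 replicate spots. The probes sit in constant array flanks that are not printed.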
Take TGGCTGCTGTCTTCCGTGGTCGGATGTCCATGAAGG: the ETS1 binding intensity amounted to 266.

With GGCTCACTTCCGGCCTCAGAGCCGCTTCCGGCGCGC, the ETS1 binding intensity was 71400.

CAATTGAGGAAACAGGACCAAAGACAGGAAATGGCT: the ETS1 binding intensity amounted to 2860.

For CGCCAGCCAACTTCCTCATCAGGAAGTCTTAGGGAG, the ETS1 binding intensity was found to be 4520.

GGACAGGATTTTGAGCTCTGGTTACAGCATCCTGCA: the ETS1 binding intensity was determined as 216.

On to CGGTTGCGGCGCTTCCTGGGCGGATGGCTTGAAATT, for which the ETS1 binding intensity worked out at 2790.

For TGGGAGGAAATGCCACAGCTGGTTGTGTTTCCGATT, the ETS1 binding intensity amounted to 587.

The sequence CCTTCAGGAAGCAGGACTCTGATGGCTTCCTCAAAC showed an ETS1 binding intensity of 626.

GGTGCTCACGGATGCTACGCTTGTTCCTGTCTCCTC came in with an ETS1 binding intensity of 370.

As to AGACAGCGGAAGTGGCTAATAATATTTCCTCCCCTC, the ETS1 binding intensity came out at 20100.

On to TCCACTCTGCGGAAGCCACGTTCATCCTGCCCTGCC, for which the ETS1 binding intensity was determined as 586.

For CAACTTCCTTCTGGAGTGAACATTTAACATCCTGCC, the ETS1 binding intensity is 14000.

In turn, CTTCATTTCCTCCTTTCTCCTTAACAAGGAAATGAC had an ETS1 binding intensity of 14800.

As to ACGTGACTGCTGCGGAAGGCGGAAGCCGGGAGACTC, the ETS1 binding intensity came to 469.

ACATCACCCTTCCGGGGCTCAGGCGGAAGAGGCTGC registered an ETS1 binding intensity of 3970.

CCCGCATCCGGCGCCAGCAGCCGGGGTTTCCGAGCC yielded an ETS1 binding intensity of 39200.

Sequence CCGACCAGCTTCCGGGGCGGGACTTCCGGTCGTGGG had an ETS1 binding intensity of 36700.

TTGTTTCAGGAAGTGCTTTCTGTAAGGATGTTAGGG displayed an ETS1 binding intensity of 2270.

Turning to TAAGTTTCCTGAGGCCTCCCAGCCATGCTTCCTGTA, the ETS1 binding intensity is 5090.

As for TCATGGTGGGCAGGAAGACATTTCCGTTACCCTGGG, the ETS1 binding intensity was 3150.

On to AGGTGCTTCCTGTAGATGTGTATCTGAGGAAATGGA, for which the ETS1 binding intensity worked out at 19800.

With AAGGGAGTGTTTCCTGTGGGCCGGATGAAGATCTCA, the ETS1 binding intensity amounted to 14400.

The sequence GTCTCAGCATCCTGGCCATGTGATTTCCTGCCACGC yielded an ETS1 binding intensity of 6580.

As to AGCTACTTCTTCCTGGCAGAGACCGGAAGTGCGGTC, the ETS1 binding intensity turned out to be 13800.

CTTTACAGGAAGTGGCTGATATGGCTTCCTGCTGCA returned an ETS1 binding intensity of 12000.

GTGGGAGGAAGATGAACCACATGCCACTTCCTCTCT returned an ETS1 binding intensity of 915.

Consider AACGTCCAGGAGGAAGTCAATTTCCTGGCCCTCAAT, for which the ETS1 binding intensity is 5100.

ACTCCCCGCGGAAGTGCTCACACCGGAACCCCTCTG: the ETS1 binding intensity turned out to be 1490.

CTCACCTACTTATCCGTTGTAGGAAATTGCATTCCC displayed an ETS1 binding intensity of 419.

On to GTTCGTTGCTCCCGGAACCGGAAGTCCGCTGCCTGC, for which the ETS1 binding intensity was 8960.

As for CACCGGAAGCCAGCTGGGTGTGGGGAGAGGATGTGA, the ETS1 binding intensity came out at 10100.

As for GAATTGAACAGGAAACATTCACGGGAAATCTGCAGG, the ETS1 binding intensity amounted to 2610.

GCGCCGTTTTGTTCCGCTCCGCGGAAGGCGTGTCCC returned an ETS1 binding intensity of 334.

Take AGTTAGGATGTCTGTGTCATCTGCCATTTCCTCTTT: the ETS1 binding intensity stood at 532.

AGTTCACTGCAGCTTCCTCCTTCCTGGGCTCAACCA: the ETS1 binding intensity is 1730.

Sequence TTTAGCAAGGAAGCAAATGCCCACATCCTGTCATTA displayed an ETS1 binding intensity of 3070.

In turn, TCTTGAAGGAAGTGGCCTTGTGTCACTTCCGGCCTC returned an ETS1 binding intensity of 12600.

TGAAGTGCAGGAAGAGCCAGCTGCGGAAACGGAGGC gave an ETS1 binding intensity of 392.

With TGTTGCCGGATCTGCCCCCACTCCCTTCCTGTTGTG, the ETS1 binding intensity is 746.

Consider AAGGGAATCTGGGAAATGTAGTTTCCTGCAATCCAG, for which the ETS1 binding intensity worked out at 540.

Sequence CAGGCACCTGTATTTCCGTTTCCGGTTCGCCTCCGG showed an ETS1 binding intensity of 22100.

TCGGGTTCCGGGGCGGGCTGGGCCGGCGGAAGGGGT showed an ETS1 binding intensity of 1410.

The sequence CACATGCATTTCCTTTTGGGGAGTTTCCTTCTGGGC came in with an ETS1 binding intensity of 8200.

GCCGCTCTCCCTCGGAAGCCGGAAGTCGGCTTCTAG: the ETS1 binding intensity is 9610.

GCGCGAGGCCGGGAAACCAGGTTCCGGCCCCACCAA yielded an ETS1 binding intensity of 760.

Consider AAAAGAGTGTGTTTCCTGGCTTCCTGAGAACTGGGG, for which the ETS1 binding intensity worked out at 3570.

GGTGCGGAAGTCGCTCCAGGGGTCACTGGGAAGTGT returned an ETS1 binding intensity of 5620.

Take TCGGCAGGAAACATCTTGGCAGGACAGGAAGCGCGG: the ETS1 binding intensity turned out to be 2010.

Turning to CAGTCTTGGCGGGAAACGCCGCGGAAGACGCTTCTC, the ETS1 binding intensity is 183.

With TTCACCCCACCACTTCCTCATCCTGATCTCAGCTCA, the ETS1 binding intensity is 2880.

As to TTGCAGAATAACAGGAAGAGGAAGTTGTTATCTGTT, the ETS1 binding intensity was determined as 2010.

Turning to AAAACGTGCTTCCGGTTCTCGGCGGAAGTAGCCCCG, the ETS1 binding intensity was determined as 47600.

As to CTAAGAAGGGGGAAATGGTCTCTTTCCTGGGTGGTA, the ETS1 binding intensity was 423.

In turn, AGCCCTGCAGGATGTGACTCAGCATCCTGTCTCAGT returned an ETS1 binding intensity of 6810.

GCCGAGGAGCCGGAAGAGAGGCGGAAAGGGCAGCAG showed an ETS1 binding intensity of 4960.

On to GGGAGGAAATGGGGCGAAACCTCAGGAGGGATGTGG, for which the ETS1 binding intensity amounted to 554.

TTACCGCCGCTTCCGGGGGCGCAGGAAATGCGCGTT: the ETS1 binding intensity was 18600.

Take CCCGACTTCCTGCCCCGCCAGAGCCAGGAAGCGGGA: the ETS1 binding intensity amounted to 43600.

In the case of TGGGCTTCCTGGCGTGGGGCCTCCGCCCTTCCTGTC, the ETS1 binding intensity was found to be 6360.

For GTCCGTCAGAACCGGAAGCGGAAGCCCCAGGGAGGG, the ETS1 binding intensity amounted to 15600.

The sequence AGTAGCACCCAACTTCCTGGGGAAATGATTCAGATT returned an ETS1 binding intensity of 7230.

In the case of CTCCAACCCGGAAACGCGCGGCTCTTCCGGCCGGCG, the ETS1 binding intensity amounted to 10000.

With TTGTGCTTCCGCTCGGGGAAAGACCGCTTCCGGTGC, the ETS1 binding intensity turned out to be 33300.

As to CCAACATCCTGTCTTTGTGAAGCAGGGTTTCCTGCA, the ETS1 binding intensity is 46600.

CTCATAAACAGGAAGAAGTGAGCGGATGCTGCTACT registered an ETS1 binding intensity of 3010.

CTCAATGGAGCTTCCGTCCGTTTCCCATGGTGCCCT gave an ETS1 binding intensity of 3900.

Sequence TGGAGCGTTCCGCTCTGTGAGCCCCATCCGGGCCCA returned an ETS1 binding intensity of 294.

Sequence TCTACTTCCGGTTTGCCTGTGAATTCTTTCCTGGGC returned an ETS1 binding intensity of 153000.

With AATGAACAGGAAATGGTCATTAACATCCTGCAAATG, the ETS1 binding intensity stood at 20600.

The sequence CGCCTTCCGTCTATGGCTTGGGGTCGGCTTCCGTCC gave an ETS1 binding intensity of 5130.

Regarding ACAATTAAAGAGGAAATAGACAGGAAGCAGAGCTCA, the ETS1 binding intensity worked out at 2830.

The sequence GAAGTAGCAGCTTCCTCAAGCAGGAAGTAGGAAAAG yielded an ETS1 binding intensity of 6100.

Take AGTGAGGCAGGAAGCAGCAGGGAGGAAGCCACAATG: the ETS1 binding intensity turned out to be 3300.

The sequence TAATCCCAGGAAAATTAGTTACCCTTCCTGTTTACC had an ETS1 binding intensity of 357.

In the case of GCCTCAGGGTTTCCTGCTTTACTTCCTAAGCTCCCC, the ETS1 binding intensity was 9200.

In turn, GTTTTCAGTTGCCTTCCGGTTTCCTGCTGTGATAAC gave an ETS1 binding intensity of 15800.

The sequence GGGAGAAGCGCGGAAGCACGGTTTCCTGGGCCTTCG registered an ETS1 binding intensity of 1050.

In the case of CACCGGAAGCCAGAAATGAGCAGAGAGCGGAACCAG, the ETS1 binding intensity turned out to be 13900.

AATGCAGAGCAGGATGTGGCTTTCCTGCCCCAATTT returned an ETS1 binding intensity of 4850.

Take TAACCTTGGCTTCCTTATTTAAAGGAAGTGGCTGTT: the ETS1 binding intensity is 1340.
